Screen size: about 410,000 compounds; about 6,400 (1.6%) were called active. This list was built around the results that the source calls inconclusive (neither active nor inactive); the mix of calls is not that of the screen. Calls come from the whole dose curve; as a rule, active = well fitted inhibition curve with a large enough effect; inconclusive = small, poorly fitted or top-dose-only effect; inactive = no such curve, though single readings can be large or run the other way. Potencies beside an inconclusive call are fits to weak or partial responses and may not hold up.
These compounds were tested against Glucagon-like peptide 1 receptor (Homo sapiens) (UniProt P43220) (assay: qHTS of GLP-1 Receptor Inverse Agonists (Inhibition Mode)). Conditions: HEK293 GLP-1R CRE-luciferase, luminescence, 24 h, GLP-1R form is constitutively active; series mostly up to 38.3 µM.
Outline: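 GLP-1R inverse agonism mode: basal reporter luminescence in engineered HEK293 cells measured after one day of compound exposure at 37 deg C, with a 12 min room-temperature detection step.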
Note: nearly all actives have a fitted effect of over 55% in size.
Potency is the fitted concentration of half-maximal effect; tags give direction and shape of the fitted curve.

UniProt P43220, sequence (P43220 whole entry, looked up): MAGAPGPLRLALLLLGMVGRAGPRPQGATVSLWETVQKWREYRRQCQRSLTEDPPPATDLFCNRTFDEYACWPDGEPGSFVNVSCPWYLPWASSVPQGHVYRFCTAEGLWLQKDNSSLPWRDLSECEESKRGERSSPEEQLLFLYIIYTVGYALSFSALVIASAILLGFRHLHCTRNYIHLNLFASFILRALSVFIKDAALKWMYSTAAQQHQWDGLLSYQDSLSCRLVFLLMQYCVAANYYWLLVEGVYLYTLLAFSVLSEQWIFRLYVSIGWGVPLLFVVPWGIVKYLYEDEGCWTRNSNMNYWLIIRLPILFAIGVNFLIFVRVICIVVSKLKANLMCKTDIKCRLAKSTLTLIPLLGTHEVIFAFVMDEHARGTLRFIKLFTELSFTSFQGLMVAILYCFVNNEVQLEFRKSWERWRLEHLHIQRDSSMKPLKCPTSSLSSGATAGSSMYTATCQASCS

Potency, inactive:
COc1ccc(S(=O)(=O)N2CCOC23CCN(S(=O)(=O)c2cccs2)CC3)cc1
COc1ccc(NC(=O)NCCc2ccc(Cl)cc2)cc1OC
NS(=O)(=O)c1ccc(N2C(=O)C3CC=CCC3C2=O)cc1 (stereo not given)
O=C(NCc1cn(-c2ccccc2)nc1-c1ccccc1)c1ccc([N+](=O)[O-])cc1
COc1ccc(-c2csc(Nc3ccc(S(N)(=O)=O)cc3)n2)cc1OC
O=C(NCc1ccc(Cl)cc1)C1C2C=CC3(CN(Cc4cccnc4)C(=O)C13)O2 (stereo not given)
COc1ccc(-c2ccc(=O)n(CC(=O)Nc3ccc(C)cc3C)n2)cc1
Cc1ccc(-c2ccc(CCC(=O)O)n2-c2cccc(O)c2)cc1
O=C(N/N=C/c1cccnc1)NC12CC3CC(CC(C3)C1)C2
CCCCc1cc(=O)oc2cc(C)c(CN3CCCC3)c(O)c12
O=C(C1=C(O)C(=O)N(CCN2CCOCC2)C1c1cccc(F)c1)c1cc2ccccc2o1 (stereo not given)

Potency, inconclusive:
O=C(NCCCc1ccccc1)C1CCN(S(=O)(=O)c2ccc(F)cc2)CC1 2.24 µM [inhibitor, full curve]
Nc1c(C(=O)OCC2CCCO2)c2nc3ccccc3nc2n1-c1ccc2c(c1)OCCO2 (stereo not given) 17.8 µM [inhibitor, partial curve, poor fit]
CCOc1ccc(S(=O)(=O)Nc2ccc(C(=O)NCC3(N4CCCCC4)CCCCC3)cc2)cc1 11.2 µM [inhibitor, single point]
Cc1cccc(C(=O)N[C@H](C(=O)Nc2ncc(C)s2)C(C)C)c1 28.2 µM [inhibitor, single point]
CSc1nn(Cc2ccc(Cl)cc2)c(N(C(C)=O)C(C)=O)c1S(=O)(=O)c1ccccc1 12.6 µM [inhibitor, partial curve, poor fit]
O=C(OCC(=O)N1CCc2ccccc2C1)c1ccc(F)cc1Cl 11.2 µM [inhibitor, single point]
O=C(c1ccc(-c2ccccc2)cc1)C1CCCN(Cc2ccncc2)C1 (stereo not given) 10 µM [inhibitor, partial curve, poor fit]
COc1ccccc1N1CCN(C(=O)c2ccc3c(Cl)c4c(nc3c2)CCCC4)CC1 22.4 µM [inhibitor, single point]
COc1ccc(-c2cc3c(=O)n(CC(=O)NCc4cccnc4)ncn3n2)cc1 6.31 µM [inhibitor, partial curve, poor fit]
CC(C)=CCN1CCN(Cc2cnc(-c3ccccc3)s2)CC1CCO (stereo not given) 17.8 µM [inhibitor, partial curve, poor fit]
COc1ccc(CCNC(=O)c2cc3c(=O)n4ccccc4nc3n(CCCN3CCOCC3)c2=N)cc1OC 28.2 µM [inhibitor, single point]
N#Cc1c(NC(=O)COC(=O)C2CC3C=CC2C3)oc(-c2ccccc2)c1-c1ccccc1 (stereo not given) 31.6 µM [inhibitor, single point]
COc1ccc(CNC(=O)CCc2c(C)nc3cc(-c4ccccc4OC)nn3c2C)cc1 28.2 µM [inhibitor, single point]
Cc1cccc(-c2noc(CN(C(=O)c3ccc4c(c3)OCO4)C(C)C)n2)c1 11.2 µM [inhibitor, partial curve, poor fit]
O=C1c2ccccc2C(=O)c2c1cccc2N1CCCC1 12.6 µM [inhibitor, single point]
C[C@H](NC(=O)C(c1ccccc1)c1ccccc1)c1ccccc1 7.94 µM [inhibitor, partial curve, poor fit]
COc1ccc(CC2C(=O)NC(C)C(=O)N(C)C3Cc4ccc(cc4)Oc4cc(ccc4O)CC(C(=O)NC(C)C(=O)NC(C)C(=O)N2C)N(C)C3=O)cc1 (stereo not given) 1.26 µM [inhibitor, full curve, poor fit]
COC(=O)COc1cccc2c(=O)n(CC(=O)NCc3ccccc3)ccc12 11.2 µM [inhibitor, partial curve, poor fit]
CN1CCN(CCCNC(=O)c2ccc(/C=C3\Oc4ccccc4N(Cc4ccccc4F)C3=O)cc2)CC1 8.91 µM [inhibitor, partial curve, poor fit]
COc1ccc(/C=C/C(=O)c2cc(F)ccc2OC(=O)c2ccccc2OC)cc1OC 0.501 µM [inhibitor, full curve, poor fit]
CCCCOc1ccc(C(=O)N2CCN(CCc3ccccn3)CC2)cc1 10 µM [inhibitor, partial curve, poor fit]
Cc1cccc(NC(=S)Nc2ccc(Cl)c(Cl)c2)c1 28.2 µM [inhibitor, single point]
Cc1cc(C)c(S(=O)(=O)N2CCC(C(=O)NCc3ccc(Cl)cc3Cl)CC2)c(C)c1 14.1 µM [inhibitor, single point]
COc1cccc2sc(N(CCN(C)C)C(=O)c3ccc4c(c3)CCCC4)nc12 15.8 µM [inhibitor, partial curve, poor fit]
CC1CC(C)CN(S(=O)(=O)c2cccc(C(=O)OCCN3CCCC3=O)c2)C1 (stereo not given) 0.447 µM [inhibitor, full curve, poor fit]
COc1ccc(CN2C(=O)C(C)Oc3ccccc32)cc1 (stereo not given) 31.6 µM [inhibitor, single point]
O=C(Nc1ccc(S(=O)(=O)N2CCCCC2)cc1)C1CC(=O)N(c2ccc(F)cc2)C1 (stereo not given) 8.91 µM [inhibitor, partial curve, poor fit]
Cc1ccc(C(=O)Nc2cccc(C(=O)N/N=C/c3ccccc3F)c2)cc1 22.4 µM [inhibitor, single point]
Fc1cc(Br)ccc1NC(=S)NCCc1ccccc1 28.2 µM [inhibitor, single point]
